Out of some 310,000 compounds screened, about 14,000 (4.5%) showed an effect of 50% or more. The effect is printed as a negative number. Some of the results follow.
These compounds were tested against human ether-à-go-go-related gene (hERG) potassium channel (human, UniProt Q12809) (assay: primary screen, population patch clamp on CHO cells stably expressing hERG).
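Also: peak tail current of the secondary pulse compared with the same well before compound.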

human ether-à-go-go-related gene (hERG) potassium channel, sequence (Q12809 whole entry, looked up): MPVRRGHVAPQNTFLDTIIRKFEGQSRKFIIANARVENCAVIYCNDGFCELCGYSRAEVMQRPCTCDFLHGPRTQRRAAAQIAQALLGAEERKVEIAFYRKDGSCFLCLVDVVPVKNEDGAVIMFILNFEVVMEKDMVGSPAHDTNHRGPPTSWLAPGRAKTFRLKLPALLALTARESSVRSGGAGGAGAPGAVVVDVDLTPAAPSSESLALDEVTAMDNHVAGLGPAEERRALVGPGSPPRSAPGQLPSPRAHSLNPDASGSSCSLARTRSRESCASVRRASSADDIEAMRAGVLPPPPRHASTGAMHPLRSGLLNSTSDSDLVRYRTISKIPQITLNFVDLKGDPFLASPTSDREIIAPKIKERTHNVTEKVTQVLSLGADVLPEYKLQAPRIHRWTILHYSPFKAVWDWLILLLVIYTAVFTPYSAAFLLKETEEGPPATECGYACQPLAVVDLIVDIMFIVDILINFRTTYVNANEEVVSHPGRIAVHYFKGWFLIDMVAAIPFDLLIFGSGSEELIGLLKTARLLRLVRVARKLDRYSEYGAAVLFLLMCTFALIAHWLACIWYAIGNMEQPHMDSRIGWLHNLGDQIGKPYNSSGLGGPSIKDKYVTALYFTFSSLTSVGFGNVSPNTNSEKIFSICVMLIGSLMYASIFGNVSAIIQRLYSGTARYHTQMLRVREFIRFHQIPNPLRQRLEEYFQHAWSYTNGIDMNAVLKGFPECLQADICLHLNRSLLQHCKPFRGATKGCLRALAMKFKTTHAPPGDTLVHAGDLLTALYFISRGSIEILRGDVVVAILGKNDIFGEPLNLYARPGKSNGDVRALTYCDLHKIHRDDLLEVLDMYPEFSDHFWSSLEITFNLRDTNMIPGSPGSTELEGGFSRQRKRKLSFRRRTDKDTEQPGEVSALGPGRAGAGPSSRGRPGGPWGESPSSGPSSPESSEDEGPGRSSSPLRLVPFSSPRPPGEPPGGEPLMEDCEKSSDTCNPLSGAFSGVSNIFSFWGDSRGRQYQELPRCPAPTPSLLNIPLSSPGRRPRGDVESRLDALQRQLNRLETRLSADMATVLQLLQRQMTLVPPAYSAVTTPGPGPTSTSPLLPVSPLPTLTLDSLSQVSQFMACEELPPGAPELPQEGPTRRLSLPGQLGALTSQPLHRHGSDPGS

| Compound | hERG current change (%, negative = inhibition) at 10uM [%] |
| --- | --- |
| COc1ccc2oc(=O)c(C(=O)NCc3cccnc3)cc2c1 | -4.71 |
| COc1ccc(CC(NC(C)=O)C(=O)NC2CCN(c3c(Cc4ccccc4)c(C)nc4ncnn34)CC2)c(OC)c1 (centres unmarked) | -6.32 |
| Cc1c(NC(=O)C(C)Sc2nnc(-c3ccccc3)o2)c(=O)n(-c2ccccc2)n1C (centres unmarked) | 1.32 |
| CCCN1C(=S)SC(C)(C)C1/[N+]([O-])=C/c1cccnc1 (centres unmarked) | -7.57 |
| CCc1c(C)nc2ccc(Br)cc2c1Cl | 1.95 |
| COc1ccc(C2=NN(C(=O)CSc3nc4ccccc4s3)C(c3ccc(F)cc3)C2)cc1 (centres unmarked) | 6.36 |
| O=C1C2C(c3ccccc3)CC=CC2[C@H](c2ccc(C(F)(F)F)cc2)N1Cc1ccccc1 (some centres unmarked) | -2.51 |
| Cc1ccc2cc3c(NC(=O)CC(C)C)nn(C)c3nc2c1 | 2.71 |
| CC1=C(C(=O)Nc2ccc(C(=O)NCCCN3CCCCC3)cc2)SCCO1 | -24.8 |
| O=C(NC1CCCCNC1=O)c1ccc(Cl)cc1 (centres unmarked) | 13.1 |
| COc1ccc(C(=O)/C=C/Nc2ccc(S(=O)(=O)Nc3ncccn3)cc2)cc1 | 9.75 |
| Cc1cccn2cc(-c3c[nH]c4ccccc34)nc12 | -12.7 |
| CC(C)c1ccc(NC(=S)NNC(=O)c2cccs2)cc1 | 14.1 |
| Cc1cc(Br)c(S(=O)(=O)NCc2ccncc2)cc1C | 7.87 |
| O=C(Cc1cccc(C(F)(F)F)c1)NCc1ccc(Cl)cc1Cl | 15.7 |
| Cc1cc(C)n(-c2ncnc3sc4c(c23)CCCC4)n1 | -14.8 |
| CC(C)CC(NC(=O)c1ccc(Cl)cc1)C(=O)OCC(=O)c1ccc2c(c1)NC(=O)CO2 (centres unmarked) | -20.6 |
| COc1cc2[nH]c(=S)nc(NCc3ccccc3)c2cc1OC | 3.91 |
| CC1CCOC2(O1)C(=O)N(CN1CCN(c3ccccc3F)CC1)c1ccccc12 (centres unmarked) | 0.531 |
| Fc1ccc(-c2cn3cc(C(F)(F)F)cc(Cl)c3n2)cc1 | 6.92 |
| CC(=O)c1cccc(NC(=O)C(C)OC(=O)CCCN=C2NS(=O)(=O)c3ccccc32)c1 (centres unmarked) | 19.1 |
| CC(=C/c1ccccc1)/C=N/NC(=O)c1cccs1 | -4.31 |

| Compound | hERG current change (%, negative = inhibition) at 10uM [%] |
| --- | --- |
| Cl.OCCN1CCN(CCCc2c3c(cc4c2CCC4)CCC3)CC1 | -4.48 |
| COc1ccccc1-c1nnc(SC(C)C(=O)N2CCOCC2)o1 (centres unmarked) | -1.89 |
| Cc1cccc(NC(=O)Cn2cnc3c(oc4ccccc43)c2=O)c1C | -5.09 |
| COCCNC(=O)c1cccc(OC2CCN(Cc3ccc(F)cc3OC)CC2)c1 | -23.1 |
| COc1cccc(-c2ccc3c(c2)S(=O)(=O)c2cccc(C(=O)O)c2C3=O)c1OC | 15.1 |
| Cc1ccc(C(C(=O)NC2CCCCC2)N(Cc2cccnc2)C(=O)C2COc3ccccc3O2)o1 (centres unmarked) | -59.7 |
| Cc1cc2cccc(C)c2nc1SCC(=O)NCC1CCCO1 (centres unmarked) | -2.53 |
| COc1ccc([N+](=O)[O-])cc1COc1cc(C)cc2oc(=O)cc(-c3ccccc3)c12 | 0.0853 |
| Cc1[nH]c2ccc(C(=O)NCCN3CCCCCC3)cc2c1C | -2.23 |
| CC(C)C[C@H](NC(=O)OC(C)(C)C)C(=O)N[C@@H](CO)[C@H](O)[C@@H]1C[C@@H]1C(=O)N(C)C | 5.96 |
| Cc1cccc(CCNC(=O)CCS(=O)(=O)c2cc3c(cc2Cl)NC(=O)CO3)c1 | 3.71 |
| O=C(Cn1nnc(-c2ccc(Cl)cc2)n1)NC1CC2CCC1C2 (centres unmarked) | 11.7 |
| CSc1ccc(CN(C)C(=O)CNC(=O)c2ccc3c(c2)OCO3)cc1 | -3.55 |
| O=C(NCc1ccco1)c1cccc(S(=O)(=O)N2CCc3ccccc32)c1 | -9.6 |
| O=c1[nH]c(C2CCN(S(=O)(=O)c3ccc(S(=O)(=O)NC4CC4)cc3)CC2)nc2c1nnn2Cc1ccccc1 | 23.5 |
| CN(C)N1C(N)=C(C#N)C(c2cccc3ccccc23)C2=C1CC(c1ccccc1)CC2=O (centres unmarked) | -0.28 |
| Cc1nc2ccc(N)cc2s1 | -0.603 |
| Cc1ccc(OCCn2c(CCNC(=O)C(C)C)nc3ccccc32)cc1 | 1.88 |
| CCc1ccc(C2NC(=S)NC3=C2C(=O)CCC3)cc1 (centres unmarked) | 11.3 |
| COc1cc(/C=C/c2ccc(O)cc2)cc(OC)c1 | -2.2 |
| CCCCN(C(=O)c1cccc(S(=O)(=O)N2CCN(Cc3ccccc3)CC2)c1)c1ccccc1 | 12.5 |
| CCn1c(SCC(=O)NCc2cccs2)nc2c1c(=O)n(C)c(=O)n2C | -34.9 |

| Compound | hERG current change (%, negative = inhibition) at 10uM [%] |
| --- | --- |
| O=C(c1cncc(Br)c1)N1CCN(S(=O)(=O)c2ccc(Cl)cc2)CC1 | -44.3 |
| O=C(CSc1nccc(=O)[nH]1)Nc1ccc(N2CCOCC2)c(Cl)c1 | 15.3 |
| O=C(COC(=O)c1ccc(Br)cc1)Nc1ccccc1Br | 15.9 |
| Nc1n[nH]c(N)c1N=Nc1cccc(F)c1 | 2 |
| Cc1cc(NC(=S)N(CCN2CCCCC2)Cc2ccco2)ccc1Cl | -55.3 |
| CCCCCc1nnc(NC(=O)Cc2ccc([N+](=O)[O-])cc2)s1 | 23.7 |
| O=c1c2c(-c3ccco3)csc2nc(SCc2cn3cccnc3n2)n1-c1ccccc1 | -44.1 |
| O=C(c1ccccc1)c1ccc(N2CCOCC2)c(NC(=O)c2ccco2)c1 | -46.3 |
| CC(C)(C)NC(=O)NC(=O)CN1CCN(c2ncc(C(F)(F)F)cc2Cl)CC1 | -13.3 |
| Cc1ccccc1C(=O)Nc1ccccc1 | -9.89 |
| CC(C)OC(=O)c1cc(NC(=O)C2C3CCC(O3)C2C(=O)O)cc(C(=O)OC(C)C)c1 (centres unmarked) | 0.691 |
| COc1ccc(OC)c(C2C(C#N)=C(N)Oc3c2c(C)nn3-c2ccc(C)cc2)c1 (centres unmarked) | 3.33 |
| Br.O=[N+]([O-])c1cccc(-c2csc(Nc3ccccc3)n2)c1 | 13.5 |
| COc1cc(NS(=O)(=O)c2ccc(C)cc2C)cc(OC)c1OC | -10.4 |
| CSc1nc(O)c(N=Nc2ccc(F)cc2F)c(=O)[nH]1 | -4.9 |
| Cc1cc(OC(=O)c2c(Cl)cc(Cl)cc2Cl)nc(C)n1 | -13.6 |
| Cc1nc(SCc2ccccc2)c2ccsc2n1 | 3.5 |
| CCC1COCCS(=O)(=O)N1Cc1ccc(F)cc1 (centres unmarked) | -7.51 |
| COc1ccc(/C=C(\C#N)c2c[nH]c3ccccc23)cc1 | 9.93 |
| O=C(c1cc([N+](=O)[O-])ccc1N1CCN(S(=O)(=O)c2ccc(Cl)c(Cl)c2)CC1)N1CCOCC1 | -52.4 |
| Cc1ccc(CN(C)C(=O)CC2C(=O)NCCN2CC2CCCCC2)cc1 (centres unmarked) | 0.467 |
| Cc1ccc(NC(=O)c2cnccn2)c(C)c1 | 13.3 |

| Compound | hERG current change (%, negative = inhibition) at 10uM [%] |
| --- | --- |
| CCCNC(=O)CSc1nc(-c2cccs2)cc(C(F)(F)F)n1 | -17 |
| CC(=O)Nc1ccc(S(=O)(=O)NNC(=O)c2cccc(Br)c2)cc1 | 15.9 |
| Cc1cc2c(ncn2C)c(NS(=O)(=O)c2cc(Cl)ccc2Cl)c1C | -14.4 |
| Cc1ccc(-n2nc(C)c3c2NC2=C(C(=O)CC(C)(C)C2)C3c2ccccc2OCC(=O)O)cc1 (centres unmarked) | 17.8 |
| CCc1ccc(OCC(=O)NNC(=O)c2cc3ccccc3o2)cc1 | 14 |
| CC1CCN(c2c(NCc3ccc(C(=O)N4CCc5ccccc54)cc3)c(=O)c2=O)CC1 | 0.15 |
| COc1ccc(N(CC(=O)NCCSC2CCCCC2)S(=O)(=O)c2ccccc2)cc1OC | -1.85 |
| O=C(Cc1ccccc1)n1nc(-c2ccccc2)nc1NCc1ccco1 | -16.9 |
| O=C(O)CS(=O)CC(=O)Nc1cccc(C(F)(F)F)c1 (centres unmarked) | 7.09 |
| Cn1nc(C(=O)NCC2COc3ccccc3O2)c2ccccc2c1=O (centres unmarked) | -29.1 |
| CCc1ccc([C@@H]2CC=C(C(=O)O)[C@H](c3ccccc3F)N2S(=O)(=O)c2ccc(C)cc2)cc1 | 11.1 |
| COc1ccc2c(=O)c(-c3ccccc3)c(C)oc2c1 | -11.9 |
| CC(C)C(=O)Nc1c2c(nn1-c1ccc([N+](=O)[O-])cc1)CS(=O)(=O)C2 | 11.6 |
| Clc1ncccc1-c1nnn(-c2ccccc2Br)n1 | 2.49 |
| O=C(COc1ccccc1)Nc1ccc(N2CCCCC2)cc1 | 10 |
| Cc1oc2ccccc2c1CC(=O)NCCCN(C)C | 6.48 |
| O=C(NCc1ccco1)C1CC(=O)N(c2ccc(O)cc2)C1 (centres unmarked) | -10.2 |
| Cc1ccc(-n2nnnc2SCC(=O)NC(=O)Nc2ccc3c(c2)OCCO3)cc1 | 27.1 |
| Cc1csc(NC(=O)CCc2nc3ccccc3s2)n1 | -3.58 |
| CC(C)(C)c1nc(SCC(=O)Nc2nc3c(s2)CCCC3)c2ccccc2n1 | 12.7 |

From paper PMC4336329 (PLoS ONE, 2015)
